Among all 150,000 compounds or so, about 540 (0.36%) showed an effect of 50% or more. This is one part of the list.
These molecules were tested on Plasmodium falciparum (assay: Primary screen in NF54 nanoGlo assay, in single point, at 2uM, 72h; a lower Z score goes with more inhibition). Settings: timepoint 72 hour.
Type: functional, Erythrocyte

Row | Structure (SMILES) | % Inhibition [%] | Z score
1 | O=C(c1csc(S(=O)(=O)NCc2ccc3c(c2)OCO3)c1)N1CCCCC1 | -6 | 0.81
2 | COc1ccc(C(=O)Nc2cc(-c3ccco3)no2)cc1OC | -1 | 0.12
3 | COC(=O)C1CCC(N[C@H](c2nnc3ccccn23)C(C)C)CC1 (stereo partly specified) | -2 | 0.28
4 | Cc1cc2ncc(NS(=O)(=O)c3ccc4c(c3)CCCC4)cn2n1 | -25 | 3.16
5 | CC1CN(S(=O)(=O)C(C)C)CCC1NCC=Cc1ccccc1 (stereo unspecified) | -3 | 0.61
6 | C#CC(NC(=O)CNC(=O)C(C)(C)C)C1CCOC1 (stereo unspecified) | -3 | 0.34
7 | COc1cccc(C(=O)Nc2nc(C(F)(F)F)c(-c3ccccn3)s2)c1 | -25 | 2.65
8 | Cc1noc(C)c1Cc1c(C(=O)N2CCC(C)(c3noc(-c4cccnc4)n3)CC2)noc1C | -5 | 0.69
9 | Cn1cnnc1CN1CCN(Cc2ccccc2)[C@H]2CS(=O)(=O)C[C@H]21 | -5 | 0.66
10 | CCn1c([C@H]2CCS(=O)(=O)C2)nnc1N1CCOC2(CCCC2)C1 | 5 | -0.84
11 | CC(=O)c1ccc(-n2c(C)cn(C[C@H](O)COc3ccc(Cl)cc3Cl)c2=O)cc1 | -11 | 1.37
12 | COCC1(CNC(=O)c2cnn(C)c2S(N)(=O)=O)CCCCC1 | -16 | 1.71
13 | O=C(c1cc(F)cc(F)c1)N1CCC(CCOc2ccccc2)CC1 | -7 | 1.28
14 | COc1cccc(CNC(=O)CN2C(=O)C(C)(C)c3cc(Cl)ccc32)c1 | -5 | 0.8
15 | CCCCn1ncc(NC(=O)N2CCOCC2C2CCCO2)c1C (stereo unspecified) | 1 | -0.17
16 | Cc1ccnc2nc(-c3nc(-c4ccc(=O)n(C)c4)no3)nn12 | 10 | -1.44
17 | N#Cc1cncc(CNS(=O)(=O)C[C@H]2CCCC(F)(F)C2)c1 | -5 | 1.03
18 | Cn1cc(-c2ncnn2-c2ccc(OC(F)(F)F)cc2)c(=O)[nH]c1=O | -9 | 1.1
19 | O=C(NC1CC1)c1ccc(S(=O)(=O)NCc2cnn3cccnc23)cc1 | 5 | -1.03
20 | COc1ccc(-c2onc(C)c2C(=O)N2CCC(Cc3ccc4c(c3)OCO4)CC2)cc1 | -7 | 1.32
21 | CC(C)c1cc(C(=O)O[C@H]2C(=O)OCC2(C)C)n[nH]1 | -12 | 1.93
22 | COC(=O)C1(CNCc2ccnn2C)CCCCC1 | -7 | 1.09
23 | O=C(NC1CCC(F)C1)c1ccsn1 (stereo unspecified) | -12 | 1.19
